Test results published in publication PMC4336329 (PLoS ONE, 2015).
The whole screen tested about 310,000 compounds, of which about 2,200 (0.71%) showed an effect of 50% or more. Effects have a minus sign here. The list shows a part of the results.

These compounds were tested against human ether-à-go-go-related gene (hERG) potassium channel (human, UniProt Q12809) (assay: primary screen, population patch clamp on CHO cells stably expressing hERG).
Chain of human ether-à-go-go-related gene (hERG) potassium channel (Q12809 whole entry, looked up): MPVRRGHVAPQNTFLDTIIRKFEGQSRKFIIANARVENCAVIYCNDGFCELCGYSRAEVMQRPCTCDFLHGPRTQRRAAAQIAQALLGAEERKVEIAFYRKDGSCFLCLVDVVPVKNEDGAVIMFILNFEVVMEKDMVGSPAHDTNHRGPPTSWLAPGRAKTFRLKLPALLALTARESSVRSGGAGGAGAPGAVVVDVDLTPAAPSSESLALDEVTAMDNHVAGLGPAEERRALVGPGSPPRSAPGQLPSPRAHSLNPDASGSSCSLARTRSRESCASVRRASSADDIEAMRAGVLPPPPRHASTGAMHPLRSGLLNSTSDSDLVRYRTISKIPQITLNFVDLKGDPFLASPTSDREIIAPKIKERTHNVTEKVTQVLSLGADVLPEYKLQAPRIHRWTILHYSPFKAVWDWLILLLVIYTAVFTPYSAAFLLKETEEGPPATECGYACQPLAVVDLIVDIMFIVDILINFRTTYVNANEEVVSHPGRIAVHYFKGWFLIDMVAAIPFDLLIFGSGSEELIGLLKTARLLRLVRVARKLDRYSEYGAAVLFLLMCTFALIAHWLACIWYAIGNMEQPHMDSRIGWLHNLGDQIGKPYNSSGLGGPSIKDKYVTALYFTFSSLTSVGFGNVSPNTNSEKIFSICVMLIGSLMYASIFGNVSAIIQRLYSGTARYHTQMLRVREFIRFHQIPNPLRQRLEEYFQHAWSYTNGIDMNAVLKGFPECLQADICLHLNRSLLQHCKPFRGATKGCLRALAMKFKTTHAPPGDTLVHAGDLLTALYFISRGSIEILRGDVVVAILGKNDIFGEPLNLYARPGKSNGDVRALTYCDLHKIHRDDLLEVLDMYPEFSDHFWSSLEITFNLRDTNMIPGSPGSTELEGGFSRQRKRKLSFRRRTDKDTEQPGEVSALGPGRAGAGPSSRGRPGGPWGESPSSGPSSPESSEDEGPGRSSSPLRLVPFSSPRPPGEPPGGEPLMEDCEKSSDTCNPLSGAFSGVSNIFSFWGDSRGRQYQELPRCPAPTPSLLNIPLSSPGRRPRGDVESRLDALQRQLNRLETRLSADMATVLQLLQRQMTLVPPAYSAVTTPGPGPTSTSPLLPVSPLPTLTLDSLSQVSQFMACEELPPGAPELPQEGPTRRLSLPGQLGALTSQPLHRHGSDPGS

Point of comparison: CN1CCCN(S(=O)(=O)c2cccc(C#N)c2)CC1.Cl, “hERG current change (%, negative = inhibition) at 1uM” value 7.53%. Against it:
- CCC(C)NCCOCCOc1ccc(C)cc1Br.O=C(O)C(=O)O (stereo not shown) — lower, 2.63%
- Cc1ccccc1OCC(=O)Nc1ccccc1NC(=O)c1ccco1 — higher, 15%
- Cc1ccc(NC(=O)Nc2cccc(C(F)(F)F)c2)nc1 — higher, 18.5%
- Cc1ccc(NC(=O)c2c(C)nc(Nc3nc4ccccc4o3)nc2C)cc1 — lower, 6.99%
- COC(=O)c1ccccc1OCCCN(C)C.O=C(O)C(=O)O — lower, 6.69%
- Cc1ccccc1-n1nc2c(c1NC(=O)C1CCCC1)CS(=O)(=O)C2 — higher, 7.54%
- CC(=O)c1ccc(NC(=O)C(C)OC(=O)CCCN=C2NS(=O)(=O)c3ccccc32)cc1 (stereo not shown) — higher, 21.5%
- Cc1cccc(/C(N)=N/OC(=O)N2c3ccccc3Sc3ccccc32)c1 — higher, 8.73%
- O=C(CCC(=O)OCc1ccc(C(=O)Oc2ccc(Cl)cc2)cc1)Nc1ccccc1 — lower, 6.63%
- O=C(NCCc1c[nH]c2ccccc12)OCCCCOC(=O)NCCc1c[nH]c2ccccc12 — higher, 15.1%
- COc1ccc2ccccc2c1C(O)c1nccn1C (stereo not shown) — lower, -7.69%
- COc1ccc2c(CC(=O)NCc3cccs3)coc2c1 — lower, 2.68%
- Nn1c(SCC(=O)N2CCCc3ccccc32)nnc1-c1ccc(Cl)cc1 — higher, 10.5%
- CC(=O)Nc1ccc2c(c1)nc(C)n2Cc1ccccc1 — higher, 9.44%
- O=C(c1ccc(C(F)(F)F)cc1)N1CCCCC1 — lower, -4.21%
- O=P(O)(O)c1ccccc1OCCOCCOc1ccccc1P(=O)(O)O — higher, 9.78%
- C=CCn1c(O)c(C(CC)=Nc2cccc(C(F)(F)F)c2)c(=O)[nH]c1=O — higher, 10.1%
- COc1ccc(S(=O)(=O)N2CCCC(C(=O)O)C2)cc1 (stereo not shown) — lower, -0.0757%
- O=C(COC(=O)CNC(=O)c1ccc(Cl)cc1Cl)NNC(=O)c1ccccc1 — lower, 1.9%
- O=C(Cn1nnc2ccccc21)c1ccccc1 — lower, 0.747%
- Cc1cccc(NC(=O)c2cc3ccccc3c(=O)o2)n1 — higher, 10.9%
- COc1ccc2nc(C)cc(SCC(=O)Nc3c(C)cc(C)cc3C)c2c1 — lower, 3.56%
- CC(C)CC(=O)Nc1cccc(-c2nc3ccccc3[nH]2)c1 — higher, 14.8%
- Cc1ccc(Oc2ccc(S(=O)(=O)Nc3ccc(C(=O)O)cc3)cc2)cc1 — lower, 2.61%
- Cc1cc(-c2ccccc2)nc(Oc2cccc(C(F)(F)F)c2)c1S(C)(=O)=O — lower, 6.46%
- CSc1ccccc1NC(=O)CSc1nnnn1-c1ccccc1SC — lower, 4.36%
- Cc1ccc(/C=C/c2ccc3cccc(O)c3n2)s1 — higher, 19.5%
- COc1ccc2nc(N(CCN(C)C)C(=O)c3ccc(C(=O)c4ccccc4)cc3)sc2c1.Cl — lower, -9.47%
- Clc1cccc(Cl)c1C1Nc2cccc3cccc(c23)N1 — higher, 7.63%
- COc1ccc(CCn2c(N)cc(=O)[nH]c2=O)cc1OC — lower, -0.2%
- Cc1csc(NC(=O)CCCNC(=O)c2ccc(Cl)cc2)n1 — lower, 0.256%
- O=C(CNC(=O)c1ccco1)OCC(=O)c1ccc2ccccc2c1 — lower, 7.52%
- CCN(CC)c1ccc(C(NC(C)=O)NC(C)=O)cc1 — lower, -1.26%
- Cc1ccc(CCc2nnc(SCC(=O)Nc3cc(Cl)ccc3Cl)n2-c2ccccc2)o1 — higher, 9.1%
- CCOc1ccccc1NC(=O)CSc1nc2c(c(=O)n1C)SC(C)C2 (stereo not shown) — lower, -2.14%
- O=C(NC(Cc1ccccc1)c1ccc2c(c1)OCCCO2)c1ccccc1 (stereo not shown) — higher, 12.2%
- COc1ccc(-n2c(=O)c3ccccc3n(CC(=O)NCC3CCCO3)c2=O)cc1 (stereo not shown) — higher, 15%
- CN(C)c1ccc(C(=O)OCc2ccc(Br)cc2)cc1 — higher, 12.9%
- O=C(OCc1cc(Cl)ccc1OC(F)F)c1cccnc1 — higher, 8.24%
- CCOC(=O)c1cc(C#N)c(SC)nc1C — lower, 7.27%
- CC(C)(C)S(=O)(=O)/C(C#N)=N/Nc1ccc(S(N)(=O)=O)cc1 — lower, 1.18%
- COc1ccc(NC2=Nc3ccccc3CC2)cc1 — lower, -1.5%
- COc1ccc(CCNc2ncnc3sccc23)cc1OC — higher, 9.31%
- COc1ccc(CC(=O)Nc2cc(C)on2)cc1OC — lower, 4.43%
- NS(=O)(=O)Oc1ccccc1 — higher, 12%
- COc1ccc(NC(=O)C2CCCN2C(=O)NC2CCCCC2)cc1 (stereo not shown) — lower, -0.24%
- Nc1ccc[n+](CC(=O)c2ccccc2)c1.[Br-] — lower, 3.78%
- O=C(/C=C/c1ccccc1)NC1CCSC1=O (stereo not shown) — higher, 8.63%
- O=C1C2C3C=CC(C3)C2C(=O)N1c1ccccc1 (stereo not shown) — higher, 16.7%
- Cc1ccc(C(C(=O)NCc2ccccc2)N(Cc2cccs2)C(=O)c2ccc3c(c2)OCCO3)cc1 (stereo not shown) — lower, 5.38%
- Cc1sc(NC(=O)c2ccco2)c(CN2CCC(C)CC2)c1C — lower, 1.59%
- CC(C)CC(NC=O)C(=O)O.COc1cc2c(cc1OC)C13CCN4CC5=CCOC6CC(=O)N2C1C6C5CC43 (stereo not shown) — higher, 11.7%
- COc1cc2c3cc1Oc1cc(ccc1O)C[C@@H]1c4c(cc(OC)c(O)c4Oc4cccc(c4)C[C@@H]3N(C)CC2)CC[N+]1(C)C.Cl.O.[Cl-] — higher, 13.1%
- O=C(CCn1c(=S)[nH]c2cc3c(cc2c1=O)OCO3)NCc1ccc(Cl)cc1 — higher, 18.2%
- O=C(CSc1nnc(Cc2ccccc2)o1)NC1CCCCC1 — lower, 3.71%
- CCOC(=O)Cn1nnc(-c2cc(OC)c(OC)c(OC)c2)n1 — higher, 17.2%
- CCn1c(=O)n(CC(=O)Nc2ccc(F)cc2)c(=O)c2ccccc21 — higher, 9.81%
